In test [1] the test system is HSkMC (human skeletal muscle cells). As to the kind of experiment: cytotoxicity call (relative viability < 0.9). The following applies: 10 µM.
The subject of test [2] is HepG2. Kind of test: cytotoxicity call (relative viability < 0.9). The note with it: 10 µM.
Test [3] concerns S. aureus RN4220. As to the kind of experiment: growth inhibition call (relative growth <= 0.2). The note with it: 50 µM.

The other results are listed elsewhere or left out.

On to `CC(C)(CO)NC(=O)C(=O)NC1CC1`, for which the cytotoxicity call in test [1] and in test [2] was “inactive” in each case. Also, the growth inhibition call in test [3] is “inactive”.

As for `C[C@@H]1CN([C@H](C)CO)C(=O)Cc2cc(NC(=O)Nc3ccc(F)cc3)ccc2O[C@H]1CN(C)S(C)(=O)=O`, the cytotoxicity call in test [1] and in test [2] was “inactive” in each case. For the same compound, the growth inhibition call in test [3] is “inactive”.

On to `COc1ccc(S(=O)(=O)N(C)C[C@H]2Oc3c(NS(C)(=O)=O)cccc3C(=O)N([C@H](C)CO)C[C@H]2C)cc1`, for which the cytotoxicity call in test [1] and in test [2] was “inactive” each time. Further, the growth inhibition call in test [3] was “inactive”.

Turning to `C[C@@H]1CN([C@H](C)CO)C(=O)Cc2cc(NC(=O)Nc3ccc(C(F)(F)F)cc3)ccc2O[C@H]1CN(C)C(=O)NC1CCCCC1`, the cytotoxicity call in test [1] and in test [2] was “inactive” in each case. Further, in test [3], the growth inhibition call was “inactive”.

In the case of `C[C@H](O)C#Cc1cnc2c(c1)C(=O)N([C@H](C)CO)C[C@@H](C)[C@@H](CN(C)C(=O)Nc1ccc(C(F)(F)F)cc1)O2`, the cytotoxicity call in test [1] and in test [2] was “inactive” each time. In addition, in test [3], the growth inhibition call was “inactive”.

On to `O=C(C[C@@H]1C[C@H]2c3cc(NC(=O)Nc4ccc(C(F)(F)F)cc4)ccc3O[C@H]2[C@@H](CO)O1)NC1CCCCC1`, for which the cytotoxicity call in test [1] and in test [2] was “inactive” each time. Further, the growth inhibition call in test [3] was “inactive”.

`CN(C)CCCNC(=O)C[C@@H]1CC[C@H]2[C@@H](COC[C@@H](O)CN2S(=O)(=O)c2ccccc2)O1`: the cytotoxicity call in test [1] and in test [2] was “inactive” in each case. For the same compound, in test [3], the growth inhibition call was “inactive”.

Turning to `Cc1ccc(S(=O)(=O)Nc2ccc3c(c2)CC(=O)N([C@H](C)CO)C[C@H](C)[C@H](CN(C)C(=O)Nc2ccc(C(F)(F)F)cc2)O3)cc1`, the cytotoxicity call in test [1] and in test [2] was “inactive” throughout. For the same compound, the growth inhibition call in test [3] was “inactive”.

On to `COc1nc(N)nc2c1ncn2[C@@H]1O[C@H](CO[P@@](=O)(N[C@@H](C)C(=O)OCC(C)(C)C)Oc2cccc3ccccc23)[C@@H](O)[C@@]1(C)O`, for which the cytotoxicity call in test [1] was “inactive”. Also, the cytotoxicity call in test [2] is “active”. Moreover, the growth inhibition call in test [3] was “inactive”.

Turning to `CN(C)C(=O)C[C@H]1CC[C@H](NC(=O)C2CCOCC2)[C@@H](CO)O1`, the cytotoxicity call in test [1] and in test [2] was “inactive” throughout. In addition, the growth inhibition call in test [3] was “inactive”.

Turning to `C[C@H](O)C#Cc1ccc2c(c1)O[C@H](CN(C)C(=O)Nc1ccccc1)[C@@H](C)CN([C@@H](C)CO)S2(=O)=O`, the cytotoxicity call in test [1] and in test [2] was “inactive” each time. In addition, the growth inhibition call in test [3] is “inactive”.

For the compound `C[C@@H]1CN([C@@H](C)CO)C(=O)c2cc(NC(=O)Nc3ccccc3)ccc2O[C@@H](C)CCCCO[C@H]1CN(C)Cc1ccc2c(c1)OCO2`, the cytotoxicity call in test [1] and in test [2] was “inactive” in each case. Also, the growth inhibition call in test [3] is “inactive”.

For the compound `COc1ccc(NC(=O)N(C)C[C@H]2Oc3ccc(NC(=O)Cn4cnnn4)cc3C(=O)N([C@@H](C)CO)C[C@@H]2C)cc1`, the cytotoxicity call in test [1] and in test [2] was “inactive” each time. Also, the growth inhibition call in test [3] is “inactive”.

In the case of `C[C@H](CO)N1C[C@H](C)[C@H](CN(C)Cc2ccc(C(=O)Nc3ccccc3N)cc2)Oc2c(NS(=O)(=O)c3cn(C)cn3)cccc2C1=O`, the cytotoxicity call in test [1] and in test [2] was “inactive” each time. For the same compound, the growth inhibition call in test [3] is “inactive”.

As to `CC(C)NC(=O)N(C)C[C@H]1Oc2ccc(NC(=O)Nc3ccc4c(c3)OCO4)cc2CC(=O)N([C@H](C)CO)C[C@@H]1C`, the cytotoxicity call in test [1] and in test [2] was “inactive” throughout. Besides, the growth inhibition call in test [3] was “inactive”.

Regarding `COc1ccc(NC(=O)Nc2ccc3c(c2)C(=O)N([C@@H](C)CO)C[C@H](C)[C@@H](CN(C)C(=O)CCC(F)(F)F)OCCCC[C@@H](C)O3)cc1`, the cytotoxicity call in test [1] and in test [2] was “inactive” throughout. Besides, in test [3], the growth inhibition call was “inactive”.

As to `C[C@H]1CCCCO[C@@H](CN(C)C(=O)NC2CCCCC2)[C@@H](C)CN([C@@H](C)CO)C(=O)c2cc(NC(=O)c3ccccc3)ccc2O1`, the cytotoxicity call in test [1] and in test [2] was “inactive” each time. In test [3], the growth inhibition call is “inactive”.

As for `C[C@@H]1CN([C@@H](C)CO)C(=O)c2cccc(NC(=O)Nc3ccc4c(c3)OCO4)c2O[C@H]1CN(C)C(=O)Nc1cccc2ccccc12`, the cytotoxicity call in test [1] and in test [2] was “inactive” each time. In addition, the growth inhibition call in test [3] was “inactive”.

As for `COc1ccc(NC(=O)N(C)C[C@@H]2Oc3ccc(NC(=O)C4CC4)cc3C(=O)N([C@H](C)CO)C[C@H]2C)cc1`, the cytotoxicity call in test [1] and in test [2] was “inactive” each time. Besides, the growth inhibition call in test [3] was “inactive”.

In the case of `COc1ccc(S(=O)(=O)Nc2ccc3c(c2)C(=O)N([C@@H](C)CO)C[C@H](C)[C@H](CN(C)C(=O)NC(C)C)O3)cc1`, the cytotoxicity call in test [1] and in test [2] was “inactive” throughout. The growth inhibition call in test [3] was “inactive”.

In the case of `O=C(O)CC(O)(CC(=O)O)C(=O)O`, the cytotoxicity call in test [1] and in test [2] was “inactive” each time. The growth inhibition call in test [3] is “inactive”.

Turning to `C[C@H]1CN([C@@H](C)CO)C(=O)c2cc(NC(=O)CCC(F)(F)F)ccc2O[C@H]1CN(C)C(=O)Nc1ccc(C(F)(F)F)cc1`, the cytotoxicity call in test [1] was “inactive”. Moreover, the cytotoxicity call in test [2] is “active”. Further, the growth inhibition call in test [3] was “inactive”.

As to `C[C@@H]1CN([C@H](C)CO)C(=O)Cc2cc(NC(=O)Nc3ccc(C(F)(F)F)cc3)ccc2O[C@@H]1CN(C)S(=O)(=O)c1ccc(Cl)cc1`, the cytotoxicity call in test [1] and in test [2] was “active” in each case. In addition, the growth inhibition call in test [3] is “inactive”.

For the compound `CC(C)(C)[S@@](=O)N1Cc2cc(C(=O)N3CCCCC3)nc(-c3cccc(-c4ccccc4F)c3)c2[C@H]1CCO`, the cytotoxicity call in test [1] and in test [2] was “inactive” each time. Further, the growth inhibition call in test [3] is “inactive”.

As for `C[C@@H]1CCCCO[C@H](CN(C)CC2CCCCC2)[C@H](C)CN([C@@H](C)CO)C(=O)c2cc(NC(=O)Nc3ccccc3)ccc2O1`, in test [1], the cytotoxicity call is “inactive”. Also, the cytotoxicity call in test [2] was “active”. Also, in test [3], the growth inhibition call is “inactive”.

In the case of `Cc1ccc(S(=O)(=O)N(C)C[C@H]2Oc3ccc(NS(=O)(=O)c4ccccc4)cc3C(=O)N([C@H](C)CO)C[C@@H]2C)cc1`, the cytotoxicity call in test [1] and in test [2] was “inactive” in each case. In addition, the growth inhibition call in test [3] is “inactive”.

These data come from the antibiotic and cytotoxicity screens of Wong et al. (2023).
